# In all, about 52,000 compounds went through this assay and about 4,300 (8.3%) were called active. Rule as the data show it: active = survival mostly below about 52% (no sharp cut-off); inactive = mostly above about 56%. The list shows a part of the results.
# Test system: DeltatarO mutant
# Assay: growth inhibition of S. aureus wild type versus tarO mutant, primary screen, teichoic acid synthesis inhibitors, RN4220, OD600 (AID 463173)
# Settings: OD600, 18 h, active compounds read low, screened at 18.75 µg/mL (by protocol)
row,Structure (SMILES),survival
1,Cc1cccn2c(=O)c(/C=C(\C#N)c3nc4ccccc4s3)c(Oc3ccc(Br)cc3)nc12,inactive: 133%
2,Cn1c(=O)oc2cc(S(=O)(=O)CCC(=O)NCCc3ccccc3)ccc21,inactive: 96%
3,CCCOC(=O)c1ccc2c(c1)C(=O)N(c1ccccc1)C2=O,inactive: 78%
4,Cc1ccccc1NC(=O)Nc1ccc2nc(N3CCN(C)CC3)cc(C)c2c1,inactive: 88%
5,CC(=O)c1cc(-c2ccc(F)cc2)n(CC(=O)NC(C)c2ccccc2)c1C (stereo not given),inactive: 74%
6,Cc1ccc(C)c(N2CCN(c3nccn4nc(-c5ccc(Br)cc5)cc34)CC2)c1,inactive: 232%
7,Cc1ccc(Cl)cc1NC(=O)C(NS(=O)(=O)c1cccc2nsnc12)c1ccccc1 (stereo not given),inactive: 68%
8,CC(C)(C)c1ccc(CSc2nnc(-c3ccco3)n2-c2ccccc2)cc1,inactive: 96%
9,COc1ccc(NC(=O)C2CCCN(S(=O)(=O)c3ccc(Cl)cc3)C2)cc1 (stereo not given),inactive: 76%
10,COc1cc(Nc2nc(SCc3cccc(Cl)c3)nc3ccccc23)cc(OC)c1,active: 37%
11,Cc1nc2c(c(C)nn2-c2ccccc2)c(C)c1CCC(=O)Nc1ccc(F)cc1,inactive: 92%
12,Cc1ccc2nc(-c3ccc(NC(=O)C(F)(F)F)cc3)sc2c1,inactive: 98%
13,Fc1ccc(Nc2c3c(nc4nncn24)CCC3)cc1,inactive: 74%
14,Cc1cc(C)n(-c2nnc(Nc3ccc(C(C)C)cc3)c3ccccc23)n1,inactive: 80%
15,COc1cccc(C(=O)NC(=O)Nc2ccc(-n3nc(C(F)(F)F)cc3C(F)(F)F)cc2)c1,inactive: 81%
16,COc1ccc(CNCc2ccc3c(c2)n(C)c(=O)n3C)cc1,inactive: 84%
17,CC(=O)c1ccc(NC(=O)C2=CC(c3cccs3)=NS(=O)(=O)N2C)cc1,inactive: 95%
18,N#Cc1c(-n2ncnc2-c2ccc(F)cc2)sc2c1CCCCC2,active: -4%
19,CCCSc1ncc(Cl)c(C(=O)Nc2sc3c(c2C(=O)OC)CCCC3)n1,inactive: 53%
20,O=C(CSCc1cnn(-c2ccccc2)c1-n1cccc1)NCc1cccc(Cl)c1,inactive: 55%
21,O=C(C1CCN(S(=O)(=O)c2ccc(Br)s2)CC1)N1CCN(c2cccc(C(F)(F)F)c2)CC1,inactive: 67%
22,Cc1cc(C)c2c(CC(=O)N(Cc3ccc(Cl)cc3)Cc3ccco3)coc2c1,inactive: 57%
23,O=C(Nc1ccccc1)c1nc[nH]c1C(=O)O,inactive: 64%

row,Structure (SMILES),survival
1,CCOC(=O)CSc1nc2cc3c(cc2c(=O)n1Cc1ccc(C(=O)NCCc2ccc(OC)c(OC)c2)cc1)OCO3,inactive: 83%
2,COc1cc(OC)c(N(C)C(=O)c2c(C)oc3ncn(CC(C)C)c(=O)c23)cc1Cl,inactive: 83%
3,CCSc1nnc2nc(C)cc(C)n12,inactive: 90%
4,Cc1c(-c2ccccc2)nc2c(Cl)cccc2c1C(=O)OCC(=O)c1ccc(F)cc1,inactive: 75%
5,Cc1ccc(NC(=O)Cn2cc(S(=O)(=O)Cc3ccc(F)cc3)c3ccccc32)cc1Cl,inactive: 84%
6,COc1ccc(-c2cc(C(F)(F)F)nc(SCC(=O)NCCc3ccccc3)n2)cc1,inactive: 121%
7,CCOc1ccccc1C(=O)N(Cc1sccc1C)C1CCS(=O)(=O)C1 (stereo not given),inactive: 86%
8,CCc1ccc(-n2c(=O)c3c4c(sc3n(CC(=O)c3ccc(Br)cc3)c2=O)CCC4)cc1,inactive: 127%
9,Cc1ccc(S(=O)(=O)Nc2ccc3nc(-c4ccc(F)cc4)oc3c2)cc1,active: 11%
10,CC(C)(C)NC(=O)c1oc2ccccc2c1NC(=O)c1ccccc1F,inactive: 69%
11,COc1cc(NC(=O)Cn2c(=O)ccc3cc(S(=O)(=O)N4CCCC4)ccc32)cc(OC)c1,inactive: 93%
12,CCC(C)NC(=O)CCC(=O)N1Cc2ccccc2Oc2ncccc21 (stereo not given),inactive: 117%
13,CC1=C(C(=O)N2CCN(c3ccccc3)CC2)C2(CCCCC2)OC1=O,inactive: 86%
14,COc1ccc(CNC(=O)c2cc3ccccn3n2)cc1OC,inactive: 79%
15,Cc1ccc(-n2nc(C)c(C(=O)O)c2-n2cccc2)cc1,inactive: 102%
16,Cc1ccc(CNC(=O)c2c(C)oc3ncnc(N4CCOCC4)c23)cc1,active: 17%
17,CCOC(=O)c1c(C)[nH]c(C)c1S(=O)(=O)N(C)CC(=O)Nc1ccc(CC)cc1,inactive: 97%
18,Cc1cccc(N2CCN(C(=O)C3CCN(c4ncnc5c4nc4n5CCCCC4)CC3)CC2C)c1 (stereo not given),active: 6%
19,Cn1c(=O)c2c(nc(Oc3ccccc3Cl)n2Cc2ccc(C#N)cc2)n(C)c1=O,inactive: 87%
20,COc1cc(Nc2ncc3c(n2)CCN(Cc2cccc(C)c2)C3)cc(OC)c1,inactive: 83%
21,Cc1oc2c(C)c3oc(=O)c(CC(=O)N4CCCCC4)c(C)c3cc2c1C,inactive: 75%
22,CCCN(CCC)C(=O)C(Cc1ccccc1)NS(=O)(=O)c1ccc2c(c1)c(=O)n(C)c(=O)n2C (stereo not given),inactive: 84%
23,Cc1cccc(C)c1NC(=O)Cn1nnc(C(=O)NCc2ccc(F)cc2)c1N,inactive: 101%

row,Structure (SMILES),survival
1,Cc1ccccc1CCNC(=O)C1CCN(S(=O)(=O)c2ccc3c(ccn3C)c2)CC1,inactive: 91%
2,C=CCNc1nnc(Cl)c2ccccc12,inactive: 103%
3,Cc1c(C(=O)NCCc2ccccc2)oc2ccccc12,inactive: 95%
4,CCCc1nc(SCC(=O)N2CCCC2)c2ccccc2n1,inactive: 80%
5,O=C(CCn1nnc(-c2cccs2)n1)NCc1ccccc1Cl,inactive: 103%
6,CCOc1ccc(NC(=O)CSc2nnc(C)n2CC2CCCO2)cc1 (stereo not given),inactive: 80%
7,O=C(NCC1(c2ccccc2)CCCC1)C(=O)Nc1cccc(Br)c1,inactive: 78%
8,CCc1nn(CC(=O)Nc2cccc(C(C)=O)c2)c(=O)c2cc3sccc3n12,inactive: 63%
9,Cc1cccc(NC(=O)C2CCN(c3nnc(C)c4c(C)n(-c5ccccc5)nc34)CC2)c1C,inactive: 78%
10,O=C(NCc1ccccc1)C(=O)NCC(c1ccco1)S(=O)(=O)c1cccs1 (stereo not given),inactive: 96%
11,Cc1ccc(Cl)cc1NC(=O)C1CCCN(c2cnccn2)C1 (stereo not given),inactive: 88%
12,CN(C)c1ccc(C(CNS(=O)(=O)c2ccc(Cl)cc2)N2CCOCC2)cc1 (stereo not given),active: 37%
13,CN(c1ccccc1C(=O)O)S(=O)(=O)c1ccc2[nH]c(=O)oc2c1,inactive: 96%
14,CCOC(=O)c1ccccc1NC(=O)Cn1c(=O)n(Cc2nc(C)no2)c(=O)c2ccccc21,inactive: 83%
15,O=C(CCn1c(=O)c2ccccc2n(Cc2cccc(Cl)c2)c1=O)NCCc1ccccc1,inactive: 71%
16,CCCSc1ncc(Cl)c(C(=O)Nc2nc3ccc(C)cc3s2)n1,active: 49%
17,CC1(C)CC(n2c(SCC#N)nc3c(c2=O)C2(CCCC2)Cc2ccccc2-3)CCO1 (stereo not given),inactive: 100%
18,Cc1cc(C)c2c(CC(=O)Nc3ccccc3C(F)(F)F)coc2c1,inactive: 72%
19,CCc1ccccc1NC(=O)Cn1nc(C(F)(F)F)c2c1CCC2,inactive: 75%
20,Cc1ccc(/C=C(\C#N)C(=O)Nc2cccc(Br)c2)o1,inactive: 71%
21,Cc1ccc(Cl)cc1N1CCN(C(=O)c2cc3c(=O)oc4ccccc4c3s2)CC1,inactive: 55%
22,CC(C)CNC(=O)c1ccccc1NC(=O)c1ccco1,inactive: 105%
23,CCN1CCN(C(c2ccccc2Cl)c2c(O)cc(C)n(CCOC)c2=O)CC1 (stereo not given),inactive: 89%

row,Structure (SMILES),survival
1,Cc1oc(-c2ccc(Cl)cc2)nc1CN1CCCC(C(=O)NCc2ccccc2)C1 (stereo not given),inactive: 93%
2,Cc1ccc(-n2c(COCC(=O)O)nc3cccnc32)cc1,inactive: 86%
3,COc1cccc(C(=O)Nc2nc(-c3ccc(Br)cc3)ns2)c1,inactive: 65%
4,CCOC(=O)Cc1ccc(NC(=O)N(Cc2ccc(CC)cc2)Cc2cn[nH]c2-c2ccc(OC)cc2)cc1,inactive: 62%
5,Cc1nc2ccc(S(=O)(=O)NCC(=O)Nc3ccc(F)cc3F)cc2s1,inactive: 120%
6,Cc1ccccc1OCCn1c(CCNC(=O)C2CCCCC2)nc2ccccc21,inactive: 77%
7,Cc1ccc(S(=O)(=O)N2CCN(Cc3nc4ccc(C)cc4o3)CC2)c(C)c1,inactive: 99%
8,Cc1ccc(-n2c(SCC(=O)N3CCCc4ccccc43)nc3c([nH]c4ccccc43)c2=O)cc1,inactive: 73%
9,CCc1ccc(C2=CC(c3c(F)cccc3Cl)n3c(nc4ccccc43)N2)cc1 (stereo not given),inactive: 86%
10,CCc1ccc(OCCn2c(C3CC(=O)N(Cc4ccc(F)cc4)C3)nc3ccccc32)cc1 (stereo not given),active: 3%
11,CC(C)(C)C(=O)Nc1ccccc1C(=O)OCc1cc(=O)n2ccsc2n1,inactive: 54%
12,COCCCNC(=O)CSC1=Nc2ccccc2C2=NC(CCC(=O)NCc3ccc(OC)cc3)C(=O)N12 (stereo not given),inactive: 71%
13,O=c1[nH]cnc(O)c1Cc1c(O)nc[nH]c1=O,inactive: 99%
14,Nc1nn(-c2ccccc2)nc1C(=O)OCc1ccccc1,active: 58%
15,CC1CCCN(CCCNC(=O)Cn2ncc3c([nH]c4ccccc43)c2=O)C1 (stereo not given),inactive: 94%
16,O=C(COC(=O)C1CCC(N2C(=O)C3C4C=CC(C4)C3C2=O)CC1)c1ccc(F)cc1 (stereo not given),inactive: 60%
17,COC(=O)c1scc(-c2ccc(C)cc2)c1S(=O)(=O)Nc1cc(C)ccc1OC,inactive: 75%
18,Cc1cccc(NC(=O)Cn2c(=O)n(CCCCCC(=O)NCc3ccc4c(c3)OCO4)c(=O)c3sccc32)c1,inactive: 76%
19,Cc1ccc(NC(=O)c2cnc3sc(N4CCOCC4)nn3c2=O)cc1N(C)C,inactive: 80%
20,O=C(c1ccc2c(c1)N(Cc1ccccc1)C(=O)c1ccccc1S2(=O)=O)N1CCN(Cc2ccccc2)CC1,inactive: 76%
21,COc1ccccc1C(=O)Nc1sc(Nc2ccccc2)nc1C(N)=O,inactive: 124%

# Source: PubChem BioAssay AID463173 (ICCB-Longwood Screening Facility, Harvard Medical School, 2010)
